According to PubChem BioAssay AID485294 (National Center for Advancing Translational Sciences (NCATS), 2010):
The campaign covered roughly 370,000 compounds. About 150 (0.041%) were called active. Inconclusive means that the source gave no clear call. Such entries were picked first, then a sample of the others. Calls come from the whole dose curve; as a rule, active = well fitted inhibition curve with a large enough effect; inconclusive = small, poorly fitted or top-dose-only effect; inactive = flat fitted curve, though single readings scatter. Potencies of inconclusive entries are left out as doubtful fits.

Each compound was assayed against Beta-lactamase (Escherichia coli (strain K12)) (UniProt P00811) (assay: qHTS Inhibitors of AmpC Beta-Lactamase (assay with detergent)). Details: AmpC hydrolysis of nitrocefin, absorbance 480 nm, 0.01% Triton; series mostly up to 114 µM.
Sequence of UniProt P00811 (P00811 whole entry, looked up): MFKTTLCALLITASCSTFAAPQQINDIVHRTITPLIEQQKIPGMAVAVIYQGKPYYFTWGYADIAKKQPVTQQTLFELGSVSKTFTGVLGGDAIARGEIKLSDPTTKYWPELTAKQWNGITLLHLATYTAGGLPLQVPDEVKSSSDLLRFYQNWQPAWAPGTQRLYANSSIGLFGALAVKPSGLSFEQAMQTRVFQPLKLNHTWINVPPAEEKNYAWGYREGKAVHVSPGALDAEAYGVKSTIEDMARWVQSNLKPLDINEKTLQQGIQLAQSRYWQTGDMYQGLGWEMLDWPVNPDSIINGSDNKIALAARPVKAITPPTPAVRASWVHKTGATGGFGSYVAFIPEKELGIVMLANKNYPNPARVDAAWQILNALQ
In short: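 AmpC (5.3 nM in the dispensed reagent) in 20 mM phosphate pH 7.0 with 0.01% (detergent screen) or 0.0001% Triton X-100 was preincubated with compounds for 15 min at room temperature. Nitrocefin was then added from an 800 uM solution, and hydrolysis was followed at 480 nm.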
Note: nearly all actives have a fitted effect of over 25% in size.
Potency is the fitted concentration of half-maximal effect; tags give direction and shape of the fitted curve.

SMILES | Potency
O=C(C1COc2ccccc2O1)N1CCN(c2nc3ccc([N+](=O)[O-])cc3s2)CC1 (configuration not stated) | inconclusive [inhibitor, full curve]
O=C(NCCCc1ccccc1)c1ccccc1 | inconclusive [inhibitor, single point]
Cc1ccccc1-n1c(-c2ccco2)n[nH]c1=S | inactive
COCc1c(C(=O)OCc2nc(N)nc(Nc3ccccc3C)n2)oc2ccccc12 | inconclusive [inhibitor, full curve, poor fit]
Brc1cc2c(cc1Cn1c(-c3cncs3)nc3ccccc31)OCO2 | inconclusive [inhibitor, full curve]
Cc1ccccc1NC(=O)CN1C(=O)NC2(CCc3ccccc32)C1=O (configuration not stated) | inconclusive [inhibitor, partial curve, poor fit]
Cc1nc2ccccc2[nH]c1=O | inactive
CCCCOc1ccc(-c2nc(/C=N/c3nccs3)c(O)o2)cc1 | inactive
CCCN1CCN(CCCNC(=O)CN2C(=O)C(CC)Oc3ccccc32)CC1 (configuration not stated) | inconclusive [inhibitor, partial curve, poor fit]
CC1Cc2cc(S(=O)(=O)CCC(=O)NCc3ccco3)ccc2N1C(=O)C1CC1 (configuration not stated) | inactive
COC(=O)CC1C(=O)NCCN1C(=S)NC(=O)c1sc2ccccc2c1Cl (configuration not stated) | inconclusive [inhibitor, full curve, poor fit]
Cc1nc(-c2ccccc2)sc1-c1ccc(SCC(=O)NCc2ccccc2Cl)nn1 | inactive
O=S(=O)(c1ccc2c(c1)OCCO2)N1CCC(O)(c2ccc(Cl)cc2)CC1 | inactive
CC1C2CC(C(CN(C)C)/C2=N/O)C1(C)C (configuration not stated) | inconclusive [inhibitor, full curve, poor fit]
COc1ccc(NC(=O)CS(=O)(=O)c2ccc(F)cc2)cc1 | inconclusive [inhibitor, full curve, poor fit]
O=C(O)c1cccc(-c2ccc(/C=N/Nc3ccc([N+](=O)[O-])cc3)o2)c1 | inactive
O=C(O)c1ccccc1-n1ncc2c1/C(=C/c1ccc(Cl)cc1)CC2 | inactive
O=C(Cn1c(=O)n(-c2ccccc2)c(=O)c2c3c(sc21)CCCC3)Nc1ccc(F)cc1F | inactive
COc1ccc(Nc2oc(COc3ccccc3F)nc2C#N)cc1 | inconclusive [inhibitor, full curve, poor fit]
CCOC(=O)CSc1nc(C2CC2)cc(-c2ccc(Cl)cc2)c1C#N | inactive
COc1cccc(CNC(=O)c2cccc(-n3c(C)nc4cccnc43)c2)c1OC | inactive
NC1=NC(c2ccc(Cl)cc2)N(c2ccc(S(N)(=O)=O)cc2)C(N)=N1 (configuration not stated) | inconclusive [inhibitor, single point]
Cc1sc2nc(SCC(N)=O)n(C)c(=O)c2c1C | inconclusive [inhibitor, single point]
N#Cc1nc(-c2ccc(COc3ccc(Cl)cc3)o2)oc1N1CCC(C(N)=O)CC1 | inactive

SMILES | Potency
O=C(c1ccccc1Cl)N1CCN(C(=O)C2CCCO2)CC1 (configuration not stated) | inconclusive [inhibitor, partial curve, poor fit]
CCOC(=O)C1=C(N)Oc2c(oc(CO)cc2=O)C1c1c(F)cccc1Cl (configuration not stated) | inactive
N#Cc1ccccc1NC(=O)CSc1n[nH]c(-c2ccco2)n1 | inactive
Cc1ccc(-n2ncc3c(NCCCN4CCOCC4)ncnc32)cc1C | inactive
CN(C(=O)c1ccc(NC(=O)Cc2cccc(NC(=O)C3CCN(C(=O)C4CC4)CC3)c2)cc1)C1CCCC1 | inconclusive [inhibitor, single point]
Cc1cc(Cl)c2oc(C(=O)NCCN3CCCCC3CO)c(C)c2c1 (configuration not stated) | inconclusive [inhibitor, full curve]
COCCN(C(=O)COC(=O)/C=C/c1ccc(OC)c(OC)c1)c1c(N)n(Cc2ccccc2)c(=O)[nH]c1=O | inactive
CC(C)c1cccc(O)c(=O)c1 | inconclusive [inhibitor, full curve, poor fit]
COc1cccc(NS(=O)(=O)c2c(C)n(C)c(=O)n(C)c2=O)c1 | inconclusive [inhibitor, full curve]
COc1cc(/C=C/c2cccc[n+]2C)ccc1OCC(=O)Nc1ccccc1 | inactive
COc1ccccc1OCCNC(=O)CNC(=O)c1ccc2c(c1)OCO2 | inconclusive [inhibitor, full curve, poor fit]
Cc1ccc(CC2S/C(=N/c3ccccn3)NC2=O)cc1 (configuration not stated) | inconclusive [inhibitor, single point]
C=CCc1cccc2cc(-c3nc4ccc(C)cc4[nH]3)c(=O)oc12 | inactive
O=C(O)CC(NC(=O)c1ccncc1)c1ccccc1 (configuration not stated) | inconclusive [inhibitor, single point]
CCOC(=O)c1ccc(NC(=O)Cn2cc(C(=O)C3CC3)c3ccccc32)cc1 | inactive
Cc1ccc(C(C)C)c(OCc2ccc(C(=O)N/N=C/c3ccc(O)cc3O)cc2)c1 | inactive
Cn1nc(CC(=O)NCc2ccc(C(F)(F)F)cc2)c2ccccc2c1=O | inconclusive [inhibitor, full curve, poor fit]
O=C(NCCc1cccc(F)c1)C1CCC(=O)N(CCCc2ccccc2)C1 (configuration not stated) | inconclusive [inhibitor, partial curve, poor fit]
Nc1c(N(CCC2=CCCCC2)C(=O)CCCOc2ccccc2)c(=O)[nH]c(=O)n1Cc1ccccc1 | inconclusive [inhibitor, full curve, poor fit]
Cc1nn(-c2cccc(C(F)(F)F)c2)c(Cl)c1/C=N/n1cnnc1 | inconclusive [inhibitor, partial curve]
CCOc1ccc(C2NC(=O)NC(C)=C2C(=O)OC)cc1C (configuration not stated) | inconclusive [inhibitor, single point]
CCCCn1c(SCC(=O)N2c3ccccc3CCc3ccccc32)nc2c1c(=O)n(C)c(=O)n2C | inconclusive [inhibitor, full curve, poor fit]
Cc1ccc(Nc2cc(C)nc3ncnn23)cc1 | inactive
Cc1ccccc1OCC(=O)Nc1ccc2oc(=O)ccc2c1 | inactive

SMILES | Potency
O=C(Oc1cccnc1)c1cc2ccccc2oc1=O | inconclusive [inhibitor, partial curve]
COC(=O)C(Cc1ccc(O)cc1)NC(=O)CCC(=O)Nc1ccc(S(N)(=O)=O)cc1 (configuration not stated) | inconclusive [inhibitor, full curve, poor fit]
COc1ccccc1C(=O)Oc1cc(N)n(S(=O)(=O)c2ccc(C)cc2)n1 | inactive
C/C(=N\OC(=O)c1ccc(C)cc1)c1c(C)nc2cc(C)ccn12 | inconclusive [inhibitor, partial curve, poor fit]
Cc1ccc(C)c(S(=O)(=O)N2CCN(Cc3cc4c(cc3O)OCO4)CC2)c1 | inactive
N#Cc1ccc(NC(=O)Cn2cnc(S(=O)(=O)N3CCc4ccccc43)c2)cc1 | inactive
Cc1ccc(CS(=O)(=O)Cc2ccc(C(=O)NCc3cccnc3)o2)cc1 | inconclusive [inhibitor, full curve, poor fit]
CCOc1ccccc1CN(Cc1ccco1)S(=O)(=O)c1ccc(-n2cnnn2)c(OC)c1 | inactive
CCOC(=O)c1[nH]cnc1C(=O)N1CCN(C(=O)OC(C)(C)C)CC1 | inactive
COc1cc(C(C)=O)ccc1OCC(=O)Nc1ccc(Cl)c(S(=O)(=O)N2CCOCC2)c1 | inconclusive [inhibitor, full curve, poor fit]
CC(=O)N1CC(=O)N(c2ccccc2)C1=O | inconclusive [inhibitor, full curve, poor fit]
CCc1cccc(NC(=O)c2ccc(Cn3c(=O)[nH]c4ccsc4c3=O)cc2)c1 | inconclusive [inhibitor, full curve]
Cc1ccccc1C(=O)N1CCN(c2ccc(NC(=O)c3ccco3)cc2Cl)CC1 | inconclusive [inhibitor, full curve]
CCOC(=O)C1=C(O)/C(=C\c2sccc2C)N=C1C | inactive
COc1ccc(N2CC(C(=O)OCC(=O)c3ccccc3)CC2=O)cc1 (configuration not stated) | inconclusive [inhibitor, partial curve, poor fit]
COc1ccc(C(=O)/C=C/c2cn(CC(O)CN3CCc4ccccc43)c3ccccc23)cc1OC (configuration not stated) | inactive
N#Cc1ccc(C(=O)Nc2nc3ccccc3[nH]2)cc1 | inconclusive [inhibitor, full curve, poor fit]
Cn1cc[n+](C)c1P(=S)(c1ccccc1)c1ccccc1 | inconclusive [inhibitor, full curve, poor fit]
Fc1cccc(CNc2ncnc3ccc(-c4cccc(Cl)c4)cc23)c1 | inconclusive [inhibitor, full curve, poor fit]
CCN(CC(=O)Nc1cc(Cl)ccc1OC)CC(=O)NC1CCS(=O)(=O)C1 (configuration not stated) | inactive
COc1ccc(N=Cc2c[nH][nH]c2=O)cc1 | inconclusive [inhibitor, full curve, poor fit]
CN1CCN(c2ccc(Nc3ccnc4cc(Cl)ccc34)cc2)CC1 | inactive
CSc1nc(-c2ccccc2)c2cc(Cl)ccc2n1 | inconclusive [inhibitor, single point]
O=C(NCC(c1ccco1)N1CCOCC1)c1ccc(F)cc1 (configuration not stated) | inconclusive [inhibitor, full curve, poor fit]
